From article PMC7491321 (RNA, 2020)

Molecular target: the molecule itself
Assay: glycerol gradient sedimentation with western blot

B1: Hfq (FLAG-tagged variant, Salmonella enterica serovar Typhimurium SL1344) (natural protein)
chain: not shown
For B1, the “stoichiometry N” value was 6.
